Results on 4 molecules are retold here after publication PMC12592532.

Protein sequences, listed by entry. Tags and fused reporters are not part of them.
UniProt Q9BPZ7: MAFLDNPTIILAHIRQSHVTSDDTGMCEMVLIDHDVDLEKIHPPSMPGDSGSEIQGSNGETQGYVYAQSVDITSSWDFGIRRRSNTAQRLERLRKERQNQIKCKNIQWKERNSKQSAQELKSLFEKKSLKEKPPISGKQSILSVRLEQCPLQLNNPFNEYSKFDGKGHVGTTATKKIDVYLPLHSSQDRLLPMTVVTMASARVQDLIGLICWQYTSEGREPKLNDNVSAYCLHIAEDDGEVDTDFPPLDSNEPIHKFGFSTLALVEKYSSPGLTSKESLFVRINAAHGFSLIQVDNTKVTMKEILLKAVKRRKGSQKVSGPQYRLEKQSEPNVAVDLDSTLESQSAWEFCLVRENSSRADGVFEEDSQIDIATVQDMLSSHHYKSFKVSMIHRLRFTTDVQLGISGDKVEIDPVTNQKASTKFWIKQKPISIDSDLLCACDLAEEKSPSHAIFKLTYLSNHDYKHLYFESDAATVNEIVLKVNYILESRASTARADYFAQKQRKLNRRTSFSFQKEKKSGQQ
UniProt Q8N122: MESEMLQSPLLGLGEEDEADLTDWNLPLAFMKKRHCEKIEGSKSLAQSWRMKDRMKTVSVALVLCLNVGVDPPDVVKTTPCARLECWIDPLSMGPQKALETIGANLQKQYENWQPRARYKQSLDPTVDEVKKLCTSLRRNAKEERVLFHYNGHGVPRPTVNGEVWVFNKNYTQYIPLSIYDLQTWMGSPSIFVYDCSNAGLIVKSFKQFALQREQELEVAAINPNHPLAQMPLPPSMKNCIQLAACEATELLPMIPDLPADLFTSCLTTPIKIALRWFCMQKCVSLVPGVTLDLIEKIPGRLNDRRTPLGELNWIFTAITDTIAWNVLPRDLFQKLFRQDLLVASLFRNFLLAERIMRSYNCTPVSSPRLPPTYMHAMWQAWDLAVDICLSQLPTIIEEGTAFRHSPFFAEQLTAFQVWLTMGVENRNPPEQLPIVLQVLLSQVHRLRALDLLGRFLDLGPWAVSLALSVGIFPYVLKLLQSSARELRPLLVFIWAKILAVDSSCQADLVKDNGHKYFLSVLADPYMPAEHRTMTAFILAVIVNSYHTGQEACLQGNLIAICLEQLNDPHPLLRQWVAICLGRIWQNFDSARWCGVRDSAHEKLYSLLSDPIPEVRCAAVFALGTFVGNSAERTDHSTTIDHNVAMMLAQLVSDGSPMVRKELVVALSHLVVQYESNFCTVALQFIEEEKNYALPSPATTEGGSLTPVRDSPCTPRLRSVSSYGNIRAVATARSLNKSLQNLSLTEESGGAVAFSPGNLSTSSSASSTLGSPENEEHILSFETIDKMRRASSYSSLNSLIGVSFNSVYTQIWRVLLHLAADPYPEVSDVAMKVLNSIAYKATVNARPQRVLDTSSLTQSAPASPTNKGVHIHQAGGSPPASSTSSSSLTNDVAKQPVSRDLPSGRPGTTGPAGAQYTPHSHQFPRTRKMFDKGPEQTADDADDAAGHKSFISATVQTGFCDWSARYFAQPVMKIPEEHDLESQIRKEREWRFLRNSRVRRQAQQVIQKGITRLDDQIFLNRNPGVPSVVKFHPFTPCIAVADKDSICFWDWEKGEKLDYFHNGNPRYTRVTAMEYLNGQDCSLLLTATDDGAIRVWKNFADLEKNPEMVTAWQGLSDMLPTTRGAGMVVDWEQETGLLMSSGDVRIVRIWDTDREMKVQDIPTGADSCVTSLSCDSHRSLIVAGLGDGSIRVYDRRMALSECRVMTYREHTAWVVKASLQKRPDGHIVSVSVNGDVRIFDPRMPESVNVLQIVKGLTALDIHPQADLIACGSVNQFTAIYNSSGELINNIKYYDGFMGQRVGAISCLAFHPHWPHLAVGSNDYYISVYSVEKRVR
UniProt Q6R327: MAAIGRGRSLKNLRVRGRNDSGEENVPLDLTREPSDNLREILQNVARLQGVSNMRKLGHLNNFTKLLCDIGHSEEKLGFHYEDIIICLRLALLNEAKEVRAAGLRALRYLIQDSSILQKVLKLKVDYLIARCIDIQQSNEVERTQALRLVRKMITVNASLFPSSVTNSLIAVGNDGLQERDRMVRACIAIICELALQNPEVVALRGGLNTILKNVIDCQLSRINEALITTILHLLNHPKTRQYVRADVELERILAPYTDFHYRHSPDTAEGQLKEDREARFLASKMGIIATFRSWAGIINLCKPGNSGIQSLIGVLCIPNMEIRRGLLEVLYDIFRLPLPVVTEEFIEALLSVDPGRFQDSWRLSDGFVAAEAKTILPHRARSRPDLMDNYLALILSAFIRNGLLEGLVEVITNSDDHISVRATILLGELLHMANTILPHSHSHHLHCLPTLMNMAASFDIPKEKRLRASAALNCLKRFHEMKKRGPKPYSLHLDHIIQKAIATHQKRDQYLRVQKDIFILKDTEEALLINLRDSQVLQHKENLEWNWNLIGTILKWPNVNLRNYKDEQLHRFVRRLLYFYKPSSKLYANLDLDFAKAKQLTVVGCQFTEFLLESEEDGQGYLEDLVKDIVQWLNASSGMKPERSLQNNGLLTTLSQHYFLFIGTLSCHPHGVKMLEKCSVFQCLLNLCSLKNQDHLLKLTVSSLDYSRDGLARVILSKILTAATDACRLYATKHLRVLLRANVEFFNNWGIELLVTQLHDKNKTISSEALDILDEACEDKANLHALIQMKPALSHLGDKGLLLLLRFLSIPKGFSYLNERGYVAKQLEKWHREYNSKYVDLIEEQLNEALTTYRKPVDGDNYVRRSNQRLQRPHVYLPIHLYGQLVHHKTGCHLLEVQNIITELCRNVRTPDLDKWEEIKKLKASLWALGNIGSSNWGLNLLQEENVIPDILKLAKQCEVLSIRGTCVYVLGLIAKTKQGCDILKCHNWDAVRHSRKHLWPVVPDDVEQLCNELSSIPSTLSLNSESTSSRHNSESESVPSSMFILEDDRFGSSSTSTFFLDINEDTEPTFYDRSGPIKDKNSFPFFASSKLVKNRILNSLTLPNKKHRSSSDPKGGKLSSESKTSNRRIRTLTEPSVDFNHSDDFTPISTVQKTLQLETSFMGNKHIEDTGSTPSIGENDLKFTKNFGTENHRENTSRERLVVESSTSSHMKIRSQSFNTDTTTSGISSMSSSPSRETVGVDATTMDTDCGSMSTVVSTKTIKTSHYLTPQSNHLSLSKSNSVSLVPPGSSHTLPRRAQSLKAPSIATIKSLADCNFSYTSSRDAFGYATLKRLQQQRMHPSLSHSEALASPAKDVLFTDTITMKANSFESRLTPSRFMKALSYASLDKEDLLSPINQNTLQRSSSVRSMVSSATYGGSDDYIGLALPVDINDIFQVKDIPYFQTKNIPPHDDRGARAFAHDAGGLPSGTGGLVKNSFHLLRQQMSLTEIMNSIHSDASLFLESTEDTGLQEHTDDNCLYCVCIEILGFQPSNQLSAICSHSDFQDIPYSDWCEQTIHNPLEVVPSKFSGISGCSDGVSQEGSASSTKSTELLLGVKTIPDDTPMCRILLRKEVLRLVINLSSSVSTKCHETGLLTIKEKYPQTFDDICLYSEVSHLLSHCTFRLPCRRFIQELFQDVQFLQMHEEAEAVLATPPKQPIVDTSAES

The target in one assay is GST-mSIN (UniProt Q9BPZ7). In words: pull-down; GST or GST-mSIN immobilised on glutathione sepharose 4B beads, incubated with bacterially purified MBP-PTPN22 (2–2.5 µg), 2 h at 4 °C; immunoblot anti-MBP (Fig. 3D); both purified. Background: A western blot detects proteins with antibodies after separation by electrophoresis.
Another assay has as its target SFB-PRAS40 (UniProt Q96B36). In words: pull-down; HEK293T co-transfected with SFB-tagged mTORC1/mTORC2 components and Myc-PTPN22; 0.3% CHAPS buffer; S-protein agarose beads, immunoblot anti-Myc (Fig. 1E).
A further assay addresses SFB-RAPTOR (UniProt Q8N122). The assay is described as above.
The target of assay [1] is SFB-RICTOR full length (FL) (UniProt Q6R327). The assay is described as above.
The target of assay [2] is SFB-mSIN1 full length (UniProt Q9BPZ7). Described as above.
The target is the same in assay [3]. In words: pull-down; HEK293T cells with stable knockdown of RICTOR, co-transfected with one SFB-tagged and one Myc-tagged protein (PTPN22 and mSIN); 1% Triton X-100 buffer; S-protein agarose beads, immunoblot anti-Myc (Fig. 4B, 4G).
The target in assay [4] is SFB-RICTOR full length (FL) (UniProt Q6R327). In words: pull-down; HEK293T cells with stable knockdown of mSIN, co-transfected with one SFB-tagged and one Myc-tagged protein (PTPN22 and RICTOR); 1% Triton X-100 buffer; S-protein agarose beads, immunoblot anti-Myc (Fig. 4C, 4H).
In the next assay the target is MBP-mSIN (UniProt Q9BPZ7). In words: pull-down; MBP or MBP-mSIN immobilised on dextran sepharose beads, incubated with bacterially purified GST-AKT (0.5 µg) in the presence of recombinant His-PTPN22 or equal volume of buffer, 1 h at 4 °C; immunoblot with AKT antibody (Fig. EV4F,G); both purified.
Assay [5] has as its target mSIN1 (mammalian stress-activated protein kinase interacting protein) (human (endogenous in Jurkat, HEK293T, HCT116)) (UniProt Q9BPZ7). In words: co-IP; endogenous proteins; Jurkat cells lysed in 0.3% CHAPS buffer; IP with control IgG or anti-mSIN antibody, immunoblot (Fig. 1C).

Results are given in words; binding and its absence hold for the method and conditions named. For part of these data: Binding seen in cells or lysates may run through a third protein. Some binding calls cover weakened binding; strength is not graded here. For part of these data: Sequences can lack the tags named with a protein.

B1: MBP-PTPN22 (protein, UniProt Q9Y2R2 1-807)
chain: MDQREILQKFLDEAQSKKITKEEFANEFLKLKRQSTKYKADKTYPTTVAEKPKNIKKNRYKDILPYDYSRVELSLITSDEDSSYINANFIKGVYGPKAYIATQGPLSTTLLDFWRMIWEYSVLIIVMACMEYEMGKKKCERYWAEPGEMQLEFGPFSVSCEAEKRKSDYIIRTLKVKFNSETRTIYQFHYKNWPDHDVPSSIDPILELIWDVRCYQEDDSVPICIHCSAGCGRTGVICAIDYTWMLLKDGIIPENFSVFSLIREMRTQRPSLVQTQEQYELVYNAVLELFKRQMDVIRDKHSGTESQAKHCIPEKNHTLQADSYSPNLPKSTTKAAKMMNQQRTKMEIKESSSFDFRTSEISAKEELVLHPAKSSTSFDFLELNYSFDKNADTTMKWQTKAFPIVGEPLQKHQSLDLGSLLFEGCSNSKPVNAAGRYFNSKVPITRTKSTPFELIQQRETKEVDSKENFSYLESQPHDSCFVEMQAQKVMHVSSAELNYSLPYDSKHQIRNASNVKHHDSSALGVYSYIPLVENPYFSSWPPSGTSSKMSLDLPEKQDGTVFPSSLLPTSSTSLFSYYNSHDSLSLNSPTNISSLLNQESAVLATAPRIDDEIPPPLPVRTPESFIVVEEAGEFSPNVPKSLSSAVKVKIGTSLEWGGTSEPKKFDDSVILRPSKSVKLRSPKSELHQDRSSPPPPLPERTLESFFLADEDCMQAQSIETYSTSYPDTMENSTSSKQTLKTPGKSFTRSKSLKILRNMKKSICNSCPPNKPAESVQSNNSSSFLNFGFANRFSKPKGPRNPPPTWNI
For the molecule B1, the binding entry with GST-mSIN is reported as “binds”.

B2: Myc-PTPN22 (protein, UniProt Q9Y2R2 1-807)
chain: MDQREILQKFLDEAQSKKITKEEFANEFLKLKRQSTKYKADKTYPTTVAEKPKNIKKNRYKDILPYDYSRVELSLITSDEDSSYINANFIKGVYGPKAYIATQGPLSTTLLDFWRMIWEYSVLIIVMACMEYEMGKKKCERYWAEPGEMQLEFGPFSVSCEAEKRKSDYIIRTLKVKFNSETRTIYQFHYKNWPDHDVPSSIDPILELIWDVRCYQEDDSVPICIHCSAGCGRTGVICAIDYTWMLLKDGIIPENFSVFSLIREMRTQRPSLVQTQEQYELVYNAVLELFKRQMDVIRDKHSGTESQAKHCIPEKNHTLQADSYSPNLPKSTTKAAKMMNQQRTKMEIKESSSFDFRTSEISAKEELVLHPAKSSTSFDFLELNYSFDKNADTTMKWQTKAFPIVGEPLQKHQSLDLGSLLFEGCSNSKPVNAAGRYFNSKVPITRTKSTPFELIQQRETKEVDSKENFSYLESQPHDSCFVEMQAQKVMHVSSAELNYSLPYDSKHQIRNASNVKHHDSSALGVYSYIPLVENPYFSSWPPSGTSSKMSLDLPEKQDGTVFPSSLLPTSSTSLFSYYNSHDSLSLNSPTNISSLLNQESAVLATAPRIDDEIPPPLPVRTPESFIVVEEAGEFSPNVPKSLSSAVKVKIGTSLEWGGTSEPKKFDDSVILRPSKSVKLRSPKSELHQDRSSPPPPLPERTLESFFLADEDCMQAQSIETYSTSYPDTMENSTSSKQTLKTPGKSFTRSKSLKILRNMKKSICNSCPPNKPAESVQSNNSSSFLNFGFANRFSKPKGPRNPPPTWNI
With B2, the binding result with SFB-PRAS40 is given as “no binding”; in the assay with SFB-RAPTOR, “no binding”; in assay [1], “binds”; with SFB-mSIN1 full length [2] it was “binds”; with SFB-mSIN1 full length [3] it was “binds”; in assay [4], “binds”.

B3: His-PTPN22 (protein, UniProt Q9Y2R2 1-807)
chain: MDQREILQKFLDEAQSKKITKEEFANEFLKLKRQSTKYKADKTYPTTVAEKPKNIKKNRYKDILPYDYSRVELSLITSDEDSSYINANFIKGVYGPKAYIATQGPLSTTLLDFWRMIWEYSVLIIVMACMEYEMGKKKCERYWAEPGEMQLEFGPFSVSCEAEKRKSDYIIRTLKVKFNSETRTIYQFHYKNWPDHDVPSSIDPILELIWDVRCYQEDDSVPICIHCSAGCGRTGVICAIDYTWMLLKDGIIPENFSVFSLIREMRTQRPSLVQTQEQYELVYNAVLELFKRQMDVIRDKHSGTESQAKHCIPEKNHTLQADSYSPNLPKSTTKAAKMMNQQRTKMEIKESSSFDFRTSEISAKEELVLHPAKSSTSFDFLELNYSFDKNADTTMKWQTKAFPIVGEPLQKHQSLDLGSLLFEGCSNSKPVNAAGRYFNSKVPITRTKSTPFELIQQRETKEVDSKENFSYLESQPHDSCFVEMQAQKVMHVSSAELNYSLPYDSKHQIRNASNVKHHDSSALGVYSYIPLVENPYFSSWPPSGTSSKMSLDLPEKQDGTVFPSSLLPTSSTSLFSYYNSHDSLSLNSPTNISSLLNQESAVLATAPRIDDEIPPPLPVRTPESFIVVEEAGEFSPNVPKSLSSAVKVKIGTSLEWGGTSEPKKFDDSVILRPSKSVKLRSPKSELHQDRSSPPPPLPERTLESFFLADEDCMQAQSIETYSTSYPDTMENSTSSKQTLKTPGKSFTRSKSLKILRNMKKSICNSCPPNKPAESVQSNNSSSFLNFGFANRFSKPKGPRNPPPTWNI
Take B3: in the assay with MBP-mSIN, the binding result was “binds”.

B4: PTPN22 (protein tyrosine phosphatase non-receptor type 22) (protein, UniProt Q9Y2R2 1-807)
chain: MDQREILQKFLDEAQSKKITKEEFANEFLKLKRQSTKYKADKTYPTTVAEKPKNIKKNRYKDILPYDYSRVELSLITSDEDSSYINANFIKGVYGPKAYIATQGPLSTTLLDFWRMIWEYSVLIIVMACMEYEMGKKKCERYWAEPGEMQLEFGPFSVSCEAEKRKSDYIIRTLKVKFNSETRTIYQFHYKNWPDHDVPSSIDPILELIWDVRCYQEDDSVPICIHCSAGCGRTGVICAIDYTWMLLKDGIIPENFSVFSLIREMRTQRPSLVQTQEQYELVYNAVLELFKRQMDVIRDKHSGTESQAKHCIPEKNHTLQADSYSPNLPKSTTKAAKMMNQQRTKMEIKESSSFDFRTSEISAKEELVLHPAKSSTSFDFLELNYSFDKNADTTMKWQTKAFPIVGEPLQKHQSLDLGSLLFEGCSNSKPVNAAGRYFNSKVPITRTKSTPFELIQQRETKEVDSKENFSYLESQPHDSCFVEMQAQKVMHVSSAELNYSLPYDSKHQIRNASNVKHHDSSALGVYSYIPLVENPYFSSWPPSGTSSKMSLDLPEKQDGTVFPSSLLPTSSTSLFSYYNSHDSLSLNSPTNISSLLNQESAVLATAPRIDDEIPPPLPVRTPESFIVVEEAGEFSPNVPKSLSSAVKVKIGTSLEWGGTSEPKKFDDSVILRPSKSVKLRSPKSELHQDRSSPPPPLPERTLESFFLADEDCMQAQSIETYSTSYPDTMENSTSSKQTLKTPGKSFTRSKSLKILRNMKKSICNSCPPNKPAESVQSNNSSSFLNFGFANRFSKPKGPRNPPPTWNI
Consider B4, for which the binding result in assay [5] was “binds”.
